Source: PubChem BioAssay AID1508623 (National Center for Advancing Translational Sciences (NCATS), 2021)
Hit rate of the full screen: of about 48,000 compounds, about 450 (0.94%) were called active. Another 19% or so got no clear call; they are omitted. Calls come from the whole dose curve; as a rule, active = well fitted inhibition curve with a large enough effect; inconclusive = small, poorly fitted or top-dose-only effect; inactive = no such curve, though single readings can be large or run the other way. Some of the results follow.

Assay: Primary qHTS for Identification of Small Molecule Inhibitors of Huntingtin Promoter Activity; note: nearly all actives have a fitted effect of over 50% in size
Conditions: HEK293 HTT promoter firefly luciferase reporter (activity 0% = vehicle and -100% = no light), 24 h; series mostly up to 57.5 µM; activity change, negative = inhibition: at the top concentration
Procedure, shortened: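 Firefly luciferase readout (Dual-Glo, 10 min RT) after 24 h, 37 °C compound exposure (final up to 57.5 uM) of HEK293 reporter cells cultured 24 h beforehand; PTC124 at 50 uM final as control inhibitor; activity scaled vehicle 0%, zero RLU -100%.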

Activity change, negative = inhibition, inactive:
Cc1ccccc1OCC(=O)OCc1cc(=O)n2nc(C3CC3)sc2n1 -1.36%, CCC(=O)N1CCc2cc(Br)cc(S(=O)(=O)CCC(=O)N3CCN(c4ccc(F)cc4)CC3)c21 11.5%, Cc1cc(C)c(C)c(OCC(=O)Nc2ccc(S(=O)(=O)Nc3nc(C)cc(C)n3)cc2)c1 2.65%, COc1ccccc1OCC(O)COC(N)=O (stereo not given), CCOC(=O)C1CCCN(C(=O)C2CCN(S(=O)(=O)c3c(C)noc3/C=C/c3ccccc3F)CC2)C1 (stereo not given) -18.5%, COc1ccc(CC(=O)NCCc2sc3nc(-c4ccc(OC)cc4)nn3c2C)cc1 -19.2%, CCCN(CCC)CCCNC(=O)c1cn(CC)c2ccc(S(=O)(=O)N(C)C3CCCCC3)cc2c1=O -0.466%, CCc1ccc(OCc2cc(=O)n3c4c(sc3n2)CCCC4)cc1 -3.58%, CCNc1ncnc2c1nnn2C -7.1%, Cc1cccc(-c2nc3ccccc3n2Cc2ccccc2)c1 -4.86%, CCC(=O)Nc1ccccc1-c1nc2ccccc2n(CC(=O)c2ccc(Cl)cc2)c1=O 62.5%, Cc1ccc(S(=O)(=O)c2nnn3c2nc(NC(C)C)c2sccc23)cc1 -27%, Nc1c2c(nc3ccccc13)CCCC2O (stereo not given) -1.93%, COc1ccc2c(Sc3ccc(C)cc3)c(C(=O)NCc3ccc(F)cc3)[nH]c2c1 -6.93%, CN(C)C(=O)Oc1ccc[n+](C)c1 1.51%, COc1ccccc1NC(=O)C1=C(C)Nc2nc(CCCO)nn2C1c1cccc(O)c1 (stereo not given) -18.5%, Nc1ccn([C@@H]2CS[C@H](CO)O2)c(=O)n1 -1.34% [at 116 µM], O=C(Cn1cc(S(=O)(=O)N2CCCC2)c(S(=O)(=O)N2CCCC2)c1)Nc1ccccc1 -5.7%, O=C(Nc1cccc(NC(=O)c2ccccc2F)c1)c1ccccc1 12.1%, Cn1c(=O)c(=O)n(C)c2cc(S(=O)(=O)N3CCN(c4ccc(F)cc4)CC3)ccc21 -0.373%, COc1cc(C2CC(=O)c3cnc(N4CCN(CCO)CC4)nc3C2)cc(OC)c1OC (stereo not given) -26.5%, CCCC(=O)Nc1cc(C(=O)NCc2ccccc2)ccc1S(=O)(=O)c1ccc(Cl)cc1 21.6%, O=C(CSc1nc2c(oc3ccccc32)c(=O)n1-c1ccccc1)Nc1ccccc1F -26.5%, CC(C)c1ccc(NC(=O)CC2NCCNC2=O)cc1 (stereo not given) 13.7%, CCCc1cc(=O)[nH]c2nnc(SCCC(C)C)n12 -15.5%, COc1cc(NC(=O)CSc2ccc(-c3sc(-c4ccccc4)nc3C)nn2)cc(OC)c1 0.723%, COc1ccc(CN2CCN(S(=O)(=O)c3ccccc3)CC2)c(OC)c1 -29.2%, CCCn1cc(S(=O)(=O)c2ccc(OC)cc2)c(=O)c2cc(F)c(N3CCCCCC3)cc21 5.06%, Cc1ccc(CSc2nnc3[nH]c(=O)cc(C)n23)cc1 0.246%, NC(=O)NNc1ccccc1 -6.58%, CN1Cc2c(N)cccc2C(c2ccccc2)C1 (stereo not given) 6.22%, CCCN1C(=O)C2(c3ccccc31)c1c(oc3cc(C)c(C)cc3c1=O)C(=O)N2CCCOC (stereo not given) -14.2%, CCC(=O)N1c2ccccc2CC1C(=O)NCCc1ccc(OC)cc1OC (stereo not given) -11.8%, Cc1c(C(=O)Nc2cccc(C(F)(F)F)c2)oc2ccc(S(=O)(=O)N(C)C3CCCCC3)cc12 -6.9%, CCNC(=O)c1ccc(-n2c(-c3ccccc3)cc3c2CCCCC3)cc1 7.76%, COc1ccc(OC)c(NC(=O)[C@H](Cc2ccccc2)N2Cc3ccccc3C2=O)c1 -12.8%, COc1cccc(CNC(=O)CCc2c(C)nn(-c3ccc(N4CCOCC4)nn3)c2C)c1 12.9%, CC(=O)Nc1nonc1-c1nnc(SCc2ccc(C)cc2)n1C -0.993%, CCOC(=O)CNc1ncnc2c1nnn2C -8.39%, CCCNC(=O)c1c2c(nc3ccccc13)C(=O)N(C1CCCCC1)C2 -3.96%, CCCc1cc(=O)[nH]c2nnc(SCC(=O)Nc3cccc(C)c3)n12 -8.41%, Cc1cccn2c(=O)c(/C=C(\C#N)c3nc4ccccc4n3C)c(Oc3ccc(Cl)cc3)nc12 -5.46%, COc1cccc(-c2cc(C(=O)Nc3ccc(F)cc3)[nH]n2)c1 2.27%, CCOc1cc(-c2nnc(SCC(=O)NCc3ccc(C)cc3)nc2-c2ccc(OC)c(OCC)c2)ccc1OC -11.3%, COc1ccc(OC)c(NC(=O)c2nc(SCc3ccccc3F)ncc2Cl)c1 -4.15%, COc1cccc(NC(=O)C2CCCN2S(=O)(=O)c2ccc3c(c2)n(C)c(=O)c(=O)n3C)c1 (stereo not given) -0.686%, CCc1cccc(-n2c(=O)c3cccnc3n2CC(=O)Nc2ccccc2C(=O)OC)c1 -6.68%, CCOc1ccc(NC(=O)c2ccc3nc(Cc4ccccc4)oc3c2)cc1 -28%, Cc1ccc2oc(C(=O)Nc3sc4c(c3C(=O)NCc3ccccc3)CCCC4)cc(=O)c2c1 5.58% [at 11.5 µM], Cc1ccccc1NC(=O)N1CCC(CN2CCCC2)CC1 -11.6%, Cc1ccc(OCC(=O)OCc2cc(=O)n3c(C)csc3n2)cc1 -23.3%, COc1ccc(-n2nc3cc(C)c(NC(=O)c4ccc(C)cc4C)cc3n2)cc1Cl 7.35%, N#CC1=C2SCN(C3CCCCC3)CN2C(=O)CC1c1ccc(F)cc1 (stereo not given) -11.1%, Nc1ccc(C(=O)OCC(O)CO)cc1 (stereo not given) 0.992%, CCC(=O)N1CCc2cc(S(=O)(=O)NC(Cc3ccccc3)C(=O)NCc3ccc(F)cc3)ccc21 (stereo not given) -14.7%, O=C(CSc1nc2c([nH]c3ccccc32)c(=O)n1-c1ccccc1)Nc1ccccc1F -18.1%, O=C(CCn1cnnn1)Nc1ccccc1 -3.73%, COc1ccc(C(=O)Nc2cccc(-c3nc4cccnc4s3)c2C)c(OC)c1 -0.29%, CCOC(=O)c1ccccc1NC(=O)Cn1c(=O)n(Cc2ccc(C(=O)NCc3ccc4c(c3)OCO4)cc2)c(=O)c2ccccc21 -11.8%, CCOc1ccc(NC(=O)C2CCCN(S(=O)(=O)c3ccc(Br)s3)C2)cc1 (stereo not given) -2.59%, Cc1cccc(C(=O)NC(=O)Nc2ccc(-n3nc(C(F)(F)F)cc3C(F)(F)F)cc2)c1 -19.7%, CCOc1cc(Br)c(C2C(C(=O)OC)=C(C)NC3=C2C(=O)c2ccccc23)cc1OCC (stereo not given) -32.8%, COCCCNC(=O)C1CCN(c2ncnc3c2nc2n3CCCCC2)CC1 -7.3%, COc1ccc(-c2nc(C)c(CCNC(=O)c3ccccc3Br)s2)cc1OC 8.5%, Cc1c2cnn(CC(=O)NCc3ccc(F)cc3)c(=O)c2c(C)n1Cc1ccccc1Cl -24.6%
